According to the supplement of paper PMC9135407:
Several values for one entry are separate records, joined by “and”; a condition that tells them apart may be missing. Equal values may be shown once. Where a name gives a salt, the structure may show the parent alone. In all, about 5,800 compounds went through this assay and about 620 (11%) showed activity.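 The calls were made as follows: active = score above a cut-off or among the top three wells of a plate; in these data no inactive exceeds 0.85.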 The entries are a selection whose mix differs from that of the whole data set.

Test system: primary human hepatic stellate cells (donor 1)
Test: scaled lipid accumulation score (0 = DMSO-like, 1 = nortriptyline-like); higher = stronger HSC inactivation (lipid re-accumulation), active = hit call of the paper
Details: 48 h
[1] = library stock concentration: 5.1 mM
[2] = library stock concentration: 10 mM
[3] = library stock concentration: 3.33 mM
[4] = library stock concentration: 1 mM
[5] = library stock concentration: 2 mM

## C1CCC(C(CC2CCCCN2)C2CCCCC2)CC1 (configuration not stated) [Perhexiline maleate]
  scaled lipid accumulation score: inactive: 0.428
[1]
  scaled lipid accumulation score: inactive: 0.454
[2]
  scaled lipid accumulation score: inactive: 0.576

## COc1ccccc1N1CCN(CCCCNC(=O)c2ccc(-c3ccc(C(C)=O)cc3)cc2)CC1
[2]
  scaled lipid accumulation score: active: 0.934

## CC(C)NCC(O)COc1ccc(CCOCC2CC2)cc1 (configuration not stated)
[2]
  scaled lipid accumulation score: inactive: 0.332

## CC(C)NCC(O)COc1ccc(CCOCC2CC2)cc1 (configuration not stated) [Betaxolol]
[3]
  scaled lipid accumulation score: inactive: ≤ 0
[2]
  scaled lipid accumulation score: inactive: 0.214

## CC(C)NCC(O)COc1ccc(CCOCC2CC2)cc1 (configuration not stated) [Betaxolol hydrochloride]
  scaled lipid accumulation score: inactive: 0.503
[2]
  scaled lipid accumulation score: inactive: 0.758 and inactive: 0.394

## COc1cccc(-c2cc(F)ccc2[C@H]2Cc3nc(N)nc(C)c3C(=O)N2)n1
[2]
  scaled lipid accumulation score: active: 0.937

## CCc1nc(N)nc(N)c1-c1ccc(Cl)cc1
[2]
  scaled lipid accumulation score: inactive: 0.007

## CCc1nc(N)nc(N)c1-c1ccc(Cl)cc1 [Pyrimethamine]
  scaled lipid accumulation score: inactive: 0.065
[3]
  scaled lipid accumulation score: inactive: 0.057
Library stock concentration: 8 mM
  scaled lipid accumulation score: inactive: 0.011
[2]
  scaled lipid accumulation score: inactive: ≤ 0

## Cc1c(C(=O)NN2CCCCC2)nn(-c2ccc(Cl)cc2Cl)c1-c1ccc(I)cc1
[4]
  scaled lipid accumulation score: inactive: ≤ 0 and inactive: ≤ -0.021
[3]
  scaled lipid accumulation score: inactive: ≤ 0
[2]
  scaled lipid accumulation score: inactive: ≤ 0 and inactive: 0.147 and inactive: ≤ -0.006

## CC(=O)[C@@]1(O)CC[C@H]2[C@@H]3C[C@H](C)C4=CC(=O)C=C[C@]4(C)[C@@]3(F)[C@@H](O)C[C@@]21C [Fluorometholone]
  scaled lipid accumulation score: inactive: ≤ 0
Library stock concentration: 5.3 mM
  scaled lipid accumulation score: inactive: 0.019
[2]
  scaled lipid accumulation score: inactive: ≤ 0

## Cn1cc(C2=C(c3ccc(Cl)cc3Cl)C(=O)NC2=O)c2ccccc21
[5]
  scaled lipid accumulation score: active: 1.13
[2]
  scaled lipid accumulation score: active: 1.17

## O=C(O)c1cn(C2CC2)c2cc(N3CCNCC3)c(F)cc2c1=O [Ciprofloxacin]
Library stock concentration: 6 mM
  scaled lipid accumulation score: inactive: ≤ 0
[2]
  scaled lipid accumulation score: inactive: 0.016

## O=C(O)c1cn(C2CC2)c2cc(N3CCNCC3)c(F)cc2c1=O [Ciprofloxacin hydrochloride]
  scaled lipid accumulation score: inactive: 0.153

## CCCn1c(=O)[nH]c(=O)c2[nH]cnc21 [3-n-Propylxanthine]
[2]
  scaled lipid accumulation score: inactive: ≤ 0

## OC[C@H]1O[C@@H](n2cnc3c(NC4CCCC4)ncnc32)[C@H](O)[C@@H]1O [N6-Cyclopentyladenosine]
[2]
  scaled lipid accumulation score: inactive: ≤ 0 and inactive: ≤ -0.006

## CN1CCN(C2CCN(C(=O)Nc3cc(Oc4ccc(NC(=O)C5(C(=O)Nc6ccc(F)cc6)CC5)c(F)c4)ccn3)CC2)CC1 [Golvatinib (E7050)]
[3]
  scaled lipid accumulation score: active: 0.979

## CCOc1nc2cccc(C(=O)OCc3oc(=O)oc3C)c2n1Cc1ccc(-c2ccccc2-c2noc(=O)[nH]2)cc1 [Azilsartan Medoxomil]
[3]
  scaled lipid accumulation score: inactive: ≤ 0
[2]
  scaled lipid accumulation score: inactive: 0.184

## O=c1c(-c2ccccc2)c1-c1ccccc1 [diphenylcyclopropenone]
[2]
  scaled lipid accumulation score: active: 1.25

## C[N+](C)(C)CC=O [Betaine aldehyde chloride]
[2]
  scaled lipid accumulation score: inactive: 0.129

## CN1c2cc(O)c(N=NC(N)=O)cc2CC1S(=O)(=O)O (configuration not stated) [Carbazochrome sodium sulfonate (AC-17)]
[3]
  scaled lipid accumulation score: inactive: ≤ 0
[2]
  scaled lipid accumulation score: inactive: ≤ 0

## C#CCN[C@@H]1CCc2ccccc21
[2]
  scaled lipid accumulation score: inactive: ≤ 0

## C#CCN[C@@H]1CCc2ccccc21 [Rasagiline Mesylate]
[3]
  scaled lipid accumulation score: inactive: ≤ 0
[2]
  scaled lipid accumulation score: inactive: ≤ 0

## Cn1c(=O)[nH]c2ncn(C)c2c1=O [1,7-Dimethylxanthine]
[2]
  scaled lipid accumulation score: inactive: 0.055

## C1COC(NC(C2CC2)C2CC2)=N1 [Rilmenidine hemifumarate]
[2]
  scaled lipid accumulation score: inactive: ≤ 0

## COc1cc(OC2CCN(C)CC2)ccc1Nc1ncc2c(n1)n(C1CCCC1)c(=O)n2C
[3]
  scaled lipid accumulation score: inactive: 0.441

## N#C/C(=C\c1ccc(O)c(O)c1)C(=O)OCCc1cccs1
[2]
  scaled lipid accumulation score: inactive: ≤ 0

## COc1ccc(NS(=O)(=O)c2sc3ccc(Cl)cc3c2C)cc1N1CCNCC1
[3]
  scaled lipid accumulation score: inactive: 0.383

## Cc1cc(C(C)(C)C)c(O)c(C(C)(C)C)c1 [2,6-di-t-butyl-4-methylphenol]
Library stock concentration: 9.1 mM
  scaled lipid accumulation score: inactive: 0.257

## COc1ccc(-c2cc(=S)ss2)cc1 [Anethole-trithione (anetholtrithion)]
Library stock concentration: 8.3 mM
  scaled lipid accumulation score: inactive: ≤ -0.006

## O=C(O)Cc1c[nH]c2ccc(O)cc12 [5-Hydroxyindolacetic acid]
[2]
  scaled lipid accumulation score: inactive: ≤ -0.07

## CN(C)CCC=C1c2ccccc2COc2ccccc21 [Doxepin hydrochloride]
  scaled lipid accumulation score: inactive: 0.633
[2]
  scaled lipid accumulation score: inactive: 0.495 and inactive: 0.707 and inactive: 0.72

## CN(C)CCC=C1c2ccccc2COc2ccccc21 [Doxepin]
[2]
  scaled lipid accumulation score: inactive: 0.731

## CN1CCC[C@@H]1Cc1c[nH]c2ccc(CCS(=O)(=O)c3ccccc3)cc12 [Eletriptan hydrobromide]
[2]
  scaled lipid accumulation score: inactive: 0.624

## CN1CCC[C@@H]1Cc1c[nH]c2ccc(CCS(=O)(=O)c3ccccc3)cc12 [Eletriptan HBr]
[3]
  scaled lipid accumulation score: inactive: 0.194
[2]
  scaled lipid accumulation score: inactive: 0.202

## CC(C)[N+](C)(CCOC(=O)C1c2ccccc2Oc2ccccc21)C(C)C [Pro-Banthine]
[2]
  scaled lipid accumulation score: inactive: 0.012

## CC(C)[N+](C)(CCOC(=O)C1c2ccccc2Oc2ccccc21)C(C)C [Propantheline bromide]
  scaled lipid accumulation score: inactive: ≤ 0
Library stock concentration: 4.5 mM
  scaled lipid accumulation score: inactive: ≤ 0
[2]
  scaled lipid accumulation score: inactive: 0.004 and inactive: ≤ 0

## CC1=C(/C=C/C(C)=C/C=C/C(C)=C/C=C/C=C(C)/C=C/C=C(C)/C=C/C2=C(C)C(=O)CCC2(C)C)C(C)(C)CCC1=O [Canthaxanthin]
Library stock concentration: 3.5 mM
  scaled lipid accumulation score: active: 1.25

## COc1ccccc1Oc1c(NS(=O)(=O)c2ccc(C(C)(C)C)cc2)nc(-c2ncccn2)nc1OCCO [Bosentan Hydrate]
[3]
  scaled lipid accumulation score: inactive: ≤ 0
[2]
  scaled lipid accumulation score: inactive: ≤ 0

## COc1ccccc1Oc1c(NS(=O)(=O)c2ccc(C(C)(C)C)cc2)nc(-c2ncccn2)nc1OCCO [Bosentan]
[3]
  scaled lipid accumulation score: inactive: ≤ 0
Library stock concentration: 3.6 mM
  scaled lipid accumulation score: inactive: ≤ 0
[2]
  scaled lipid accumulation score: inactive: ≤ -0.001

## Nc1ccccc1S(N)(=O)=O [2-Aminobenzenesulfonamide]
  scaled lipid accumulation score: inactive: ≤ 0

## CCCCCCCCCCCCCCC(=O)N[C@H]1CCOC1=O [N-pentadecanoyl-L-Homoserine lactone]
[4]
  scaled lipid accumulation score: inactive: ≤ 0

## CS(=O)(=O)c1ccc(-c2cnc(N)c(C(=O)Nc3ccccc3)n2)cc1
[2]
  scaled lipid accumulation score: active: 0.907

## Cc1ccc(NC2=CC(=O)c3sc(C)nc3C2=O)cc1 [Cdk4 Inhibitor III]
[3]
  scaled lipid accumulation score: active: 0.942

## COc1cc(N2CCC(N(C)C)CC2)ccc1Nc1ncc(Cl)c(Nc2ccccc2P(C)(C)=O)n1
Library stock concentration: 80 uM
  scaled lipid accumulation score: inactive: ≤ 0
Library stock concentration: 400 uM
  scaled lipid accumulation score: inactive: ≤ 0
[5]
  scaled lipid accumulation score: inactive: ≤ 0
[3]
  scaled lipid accumulation score: inactive: 0.308
[2]
  scaled lipid accumulation score: inactive: 0.412 and inactive: 0.385

## OCc1cccnc1 [Nicotinyl alcohol tartrate]
Library stock concentration: 7.7 mM
  scaled lipid accumulation score: inactive: ≤ 0
[2]
  scaled lipid accumulation score: inactive: 0.088

## OCc1cccnc1
[2]
  scaled lipid accumulation score: inactive: ≤ 0

## NCCCNCCCCNCCCN [Spermine tetrahydrochloride]
[2]
  scaled lipid accumulation score: inactive: ≤ 0

## CCN(CC)CCNC(=O)c1cc(Cl)c(N)cc1OC [Metoclopramide monohydrochloride]
  scaled lipid accumulation score: inactive: ≤ 0

## CCN(CC)CCNC(=O)c1cc(Cl)c(N)cc1OC [Metoclopramide HCl]
Library stock concentration: 6.7 mM
  scaled lipid accumulation score: inactive: ≤ -0.006

## CCN(CC)CCNC(=O)c1cc(Cl)c(N)cc1OC [Metoclopramide hydrochloride]
Library stock concentration: 5.9 mM
  scaled lipid accumulation score: inactive: ≤ -0.001
[2]
  scaled lipid accumulation score: inactive: ≤ 0 and inactive: 0.01

## CCN(CC)CCNC(=O)c1cc(Cl)c(N)cc1OC [MetoclopraMide HCl]
[3]
  scaled lipid accumulation score: inactive: ≤ 0
[2]
  scaled lipid accumulation score: inactive: ≤ 0

## CCOc1ccc2ccccc2c1C(=O)N[C@@H]1C(=O)N2[C@@H]1SC(C)(C)[C@@H]2C(=O)O [Nafcillin Sodium]
[3]
  scaled lipid accumulation score: inactive: ≤ 0
[2]
  scaled lipid accumulation score: inactive: ≤ -0.001

## CCOc1ccc2ccccc2c1C(=O)N[C@@H]1C(=O)N2[C@@H]1SC(C)(C)[C@@H]2C(=O)O [Nafcillin sodium]
[2]
  scaled lipid accumulation score: inactive: ≤ 0

## CCOc1ccc2ccccc2c1C(=O)N[C@@H]1C(=O)N2[C@@H]1SC(C)(C)[C@@H]2C(=O)O [Nafcillin sodium salt monohydrate]
  scaled lipid accumulation score: inactive: ≤ 0

## CCOc1ccc2ccccc2c1C(=O)N[C@@H]1C(=O)N2[C@@H]1SC(C)(C)[C@@H]2C(=O)O
[2]
  scaled lipid accumulation score: inactive: ≤ 0

## CN(C)C/C=C(/c1ccc(Br)cc1)c1cccnc1 [Zimelidine dihydrochloride]
[1]
  scaled lipid accumulation score: inactive: 0.434
[2]
  scaled lipid accumulation score: inactive: 0.178

## CN(C)C/C=C(/c1ccc(Br)cc1)c1cccnc1 [Zimelidine dihydrochloride monohydrate]
  scaled lipid accumulation score: inactive: 0.454

## CC(C)(CO)C(O)C(=O)NCCCO (configuration not stated) [Panthenol]
Library stock concentration: 9.7 mM
  scaled lipid accumulation score: inactive: ≤ 0

## CC(C)(CO)C(O)C(=O)NCCCO (configuration not stated) [Panthenol (D)]
  scaled lipid accumulation score: inactive: ≤ 0

## Cn1cnc2c1c(=O)[nH]c(=O)n2C [Theobromine]
  scaled lipid accumulation score: inactive: ≤ 0
[2]
  scaled lipid accumulation score: inactive: ≤ 0

## COc1ccc(C2=N[C@@H](c3ccc(Cl)cc3)[C@H](c3ccc(Cl)cc3)N2C(=O)N2CCNC(=O)C2)c(OC(C)C)c1 [Nutlin-3a]
[2]
  scaled lipid accumulation score: active: 0.954

## NCCCNCCCCN(CCCN)/[N+]([O-])=N/O [Spermine NONOate]
[4]
  scaled lipid accumulation score: inactive: 0.027

## Cl.N/C(=N\Cc1ccccc1)NC(=O)c1nc(Cl)c(N)nc1N
Library stock concentration: 14 mM
  scaled lipid accumulation score: active: 1.1

## CCCCC[C@H](O)/C=C/[C@H]1[C@H](O)CC(=O)[C@@H]1CC(=O)CCCCC(=O)O [6-keto Prostaglandin E1]
[4]
  scaled lipid accumulation score: inactive: ≤ 0
